# Data reported in PubChem BioAssay AID1851 (National Center for Advancing Translational Sciences (NCATS), 2009).
# Only a part is listed here, and it is no random draw. Inconclusive results are not listed. The source made the active and inactive calls. Calls follow the shape of the dose curve; as a rule, active = well fitted curve in the direction sought with a large enough effect; inconclusive = small, poorly fitted or top-dose-only effect, or effect the other way; inactive = no such curve, though single readings can be large or run the other way.
# Biological target: Cytochrome P450 2C19 (Homo sapiens) (UniProt P33261)
# Test: Cytochrome panel assay with activity outcomes
# Conditions: recombinant CYP, pro-luciferin dealkylation, luminescence, p450-cyp2c19; series mostly up to 57.1 µM
# Sequence of UniProt P33261 (P33261 whole entry, looked up): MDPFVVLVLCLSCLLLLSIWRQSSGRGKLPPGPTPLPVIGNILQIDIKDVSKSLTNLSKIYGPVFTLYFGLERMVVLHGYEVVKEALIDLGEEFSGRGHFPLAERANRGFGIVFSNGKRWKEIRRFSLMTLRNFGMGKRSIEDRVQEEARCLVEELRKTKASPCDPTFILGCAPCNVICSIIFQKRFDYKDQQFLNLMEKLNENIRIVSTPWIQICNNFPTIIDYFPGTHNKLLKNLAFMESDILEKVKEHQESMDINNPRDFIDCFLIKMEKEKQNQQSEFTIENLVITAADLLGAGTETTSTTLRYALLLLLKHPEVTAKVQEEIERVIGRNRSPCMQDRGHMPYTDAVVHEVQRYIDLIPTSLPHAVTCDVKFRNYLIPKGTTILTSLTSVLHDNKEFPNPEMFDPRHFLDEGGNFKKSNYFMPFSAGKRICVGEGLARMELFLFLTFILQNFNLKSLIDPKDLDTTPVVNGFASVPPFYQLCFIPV
row,SMILES,AC50
1,Nc1nc2ccc(OC(F)(F)F)cc2s1,inactive
2,CCN(C(=O)CSc1nnc(Cc2cccc3ccccc23)n1N)C1CCS(=O)(=O)C1 (stereo not given),inactive
3,O=S(=O)(c1ccccc1)N1CCN(S(=O)(=O)c2ccccc2)c2ccccc21,active: 0.126 µM
4,COc1ccc(C2=NN(C)C(=NCc3ccccc3)SC2)cc1,active: 14.1 µM
5,C[C@@H]1C[C@H]2[C@@H]3C[C@H](F)C4=CC(=O)C=C[C@@]4(C)[C@]3(F)[C@H](O)C[C@]2(C)[C@@]1(O)C(=O)CO,inactive
6,COC(=O)C1=C(C(=O)OC)C(c2cc(Cl)ccc2O)c2sc(=O)[nH]c2S1 (stereo not given),active: 7.94 µM
7,CCC[C@H]1C[C@H](C(=O)N[C@@H]([C@H]2O[C@@H](SC)[C@@H](O)[C@@H](O)[C@@H]2O)[C@H](C)Cl)N(C)C1,inactive
8,Nc1ccc(Sc2ccccc2CC(=O)O)cc1,active: 11.2 µM
9,CCOc1cc(/C=N/n2cnnc2)ccc1OC(=O)c1cccc([N+](=O)[O-])c1,active: 14.1 µM
10,Cc1ccc(OCCNC(=O)/C=C/c2ccc([N+](=O)[O-])cc2)cc1C,inactive
